Results reported in PubChem BioAssay AID1508642 (National Center for Advancing Translational Sciences (NCATS), 2021).
The campaign covered roughly 43,000 compounds. About 200 (0.47%) were called active. Inconclusive results (about 12%) are left out. Calls follow the shape of the dose curve; as a rule, active = well fitted cell-killing curve with a large enough effect; inconclusive = small, poorly fitted or top-dose-only effect, or effect the other way; inactive = flat fitted curve, though single readings scatter. The list shows a part of the results.

experiment: Cell viability qHTS assay in S16 Pmp22-F2sN cells; details: S16 Pmp22-F2sN Schwann cells (luciferase reporters placed in the Pmp22 gene) viability, CellTiter-Glo, 24 h; series mostly up to 57.5 µM; activity change, negative = cytotoxicity: at the top concentration; also: nearly all actives have a fitted effect of over 65% in size
Procedure, shortened: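 Rat S16 Schwann reporter line, 24 h treatment with library compounds delivered at 23 nL per well. Cell viability by CellTiter-Glo luminescence.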
% is scaled to controls: 0 for no effect and ±100 for the full control effect.

Row | SMILES | activity change, negative = cytotoxicity
1 | Cc1cccc(OCCSc2nnc(-c3cccs3)o2)c1 | inactive: 5%
2 | Cc1ccc2nc(/C(C#N)=C/c3ccccc3F)[nH]c2c1 | inactive: 18%
3 | Clc1ccccc1OCCSc1nnc(-c2cccs2)o1 | inactive: 1.23%
4 | O=C(CSc1nc(=O)n(Cc2ccco2)c2c1CCC2)NCc1ccccc1 | inactive: 6.01%
5 | CCc1ccc2oc(-c3ccc(C)c(NC(=O)/C=C/c4ccco4)c3)nc2c1 | inactive: 7.46%
6 | Cc1cc(OCC(=O)NCCc2nc3ccccc3[nH]2)cc(C)c1Cl | inactive: 11.8%
7 | COc1ccc(CCNC(=O)c2ccc3c(c2)sc2nc(-c4ccccc4)cn23)cc1OC | inactive: 3.03%
8 | CCOC(=O)c1cc(-c2ccc(OC)cc2)n(CCC(=O)NCCc2ccccc2)c1C | inactive: -3.25%
9 | Cc1ccccc1N(C)S(=O)(=O)c1nnc(NC(=O)c2ccco2)s1 | inactive: -0.492%
10 | COc1cccc(C(=O)NCCc2csc3nc(-c4ccccc4F)nn23)c1OC | inactive: 1.46%
11 | Cc1ccc(NC(=O)C2(C)Cc3ccccc3C(=O)O2)c(C)c1 (stereo not drawn) | inactive: 0.276%
12 | CCn1nc(C)c(CCN(C)C(=O)Nc2cccc(Cl)c2C)c1C | inactive: 8.63%
13 | Cc1cccc(C(=O)N2CCc3cc(CNC(=O)c4cc5ccccc5[nH]4)ccc32)c1 | inactive: -4.21%
14 | Cc1ccc(CNC(=O)C(C)n2c(=O)cc(C(F)(F)F)c3c(C)nn(C)c32)cc1 (stereo not drawn) | inactive: -20.3%
15 | Cc1ccc(S(=O)(=O)C(CNC(=O)c2c(F)cccc2F)c2ccco2)cc1 (stereo not drawn) | inactive: 3.42%
16 | Cc1cc(C)c(S(=O)(=O)NCCS(=O)(=O)N2CCN(c3ccccc3)CC2)c(C)c1 | inactive: -0.684%
17 | O=S(=O)(c1ccccc1)c1nc(-c2ccccc2Cl)oc1N1CCCCCC1 | inactive: 7.55%
18 | Cc1nc2ccccn2c(=O)c1NC(=O)c1cccc(F)c1 | inactive: 1%
19 | COc1cccc(Nc2nc3cc(C)ccc3nc2NS(=O)(=O)c2ccc(Cl)cc2)c1 | inactive: -12.3%
20 | COC(=O)c1ccccc1NC(=O)Cn1cnc2sc(C)c(S(=O)(=O)N3CCC(C)CC3)c2c1=O | inactive: -7.99%
21 | CCOC(=O)c1cccc(NC(=O)c2ncoc2-c2ccco2)c1 | inactive: 6.29%
22 | Cc1cccc(-n2ccnc2SCC(=O)Nc2cccc3ccccc23)c1 | inactive: -3.09%
23 | N#Cc1c[nH]n2c(NC3CCCCC3)c(-c3ccc(F)cc3)nc12 | inactive: -18.4%
24 | Oc1ccccc1-c1nc(-c2cccs2)c(-c2cccs2)[nH]1 | inactive: -5.18%

Row | SMILES | activity change, negative = cytotoxicity
25 | O=C(COc1ccccc1Cl)Nc1ccc(OCc2cc(=O)n3ccsc3n2)cc1 | inactive: 4.06%
26 | Cc1cc(C)cc(OCCSc2nc3ccc(NC(=O)c4ccc5c(c4)OCO5)cc3s2)c1 | inactive: 13.7%
27 | CCc1ccc2[nH]cc(S(=O)(=O)c3ccc(C(C)C)cc3)c(=O)c2c1 | inactive: 0.425%
28 | CCOC(=O)c1c(NC(=O)c2cc(-c3ccccc3OC)on2)sc(C)c1C | inactive: 0.197%
29 | COc1ccc(NC(=O)CCc2c(C)nc3c(c2C)c(=O)n(C)c(=O)n3C)c(OC)c1 | inactive: 11.7%
30 | CCc1ccccc1NC(=O)Cn1nc2c3cc(F)ccc3n(Cc3cccc(C)c3)cc-2c1=O | inactive: 8.75%
31 | O=C(COc1ccccc1F)Nc1ccc2nc(SCC(=O)N3CCc4ccccc43)sc2c1 | inactive: 1.74%
32 | COc1ccccc1CNC(=O)C1(c2cccs2)CCOCC1 | inactive: 28.3%
33 | COc1ccc(-c2nc3nc(C)cc(C)n3c2Nc2c(C)cccc2C)cc1 | inactive: 0.904%
34 | Cc1cc(NC(=O)C2CCN(S(=O)(=O)c3c(C)noc3C)CC2)ccc1Br | inactive: -0.617%
35 | Cc1cc(C)c2nc(N(Cc3cccnc3)C(=O)CCS(=O)(=O)c3ccccc3)sc2c1 | inactive: -1.36%
36 | CC1=C(C(=O)Nc2cccnc2)C(c2ccc(F)cc2)n2nc(-c3cccc(C)c3)nc2N1 (stereo not drawn) | inactive: -0.147%
37 | CCN(C(=O)Cn1c(C(=O)OC)cc2sc(Cl)cc21)c1cccc(C)c1 | inactive: 2.48%
38 | COc1ccc([N+](=O)[O-])cc1NC(c1nnc(-c2ccccc2)o1)c1ccccc1F (stereo not drawn) | inactive: 1.5%
39 | CNC(=O)C1CCC(Cn2c(=O)c3sccc3n(Cc3cc(C)ccc3C)c2=O)CC1 (stereo not drawn) | inactive: 3.65%
40 | COc1ccc(N2C(=O)NC(NS(=O)(=O)c3ccc(Cl)cc3)(C(F)(F)F)C2=O)cc1 (stereo not drawn) | inactive: 8.15%
41 | COc1ccc(C2C(=O)N(C3CCCCC3)CC(=O)N2CCc2ccc(C)cc2)cc1OC (stereo not drawn) | inactive: 0.883%
42 | COCCNC(=O)CCCn1c(SCC(=O)Nc2ccc(F)cc2)nc2c(sc3ccccc32)c1=O | inactive: -17.4%
43 | COc1ccc(C(=O)n2nc(N)c3cc4ccc(C)cc4nc32)cc1OC | inactive: 1.27%
44 | CCOC(=O)Cn1c(=N)n(Cc2ccc(C(C)(C)C)cc2)c2ccccc21 | inactive: 1.06%
45 | COC(=O)c1cc2oc(C)cc2n1Cc1ccccc1Cl | inactive: -17.4%
46 | Cc1cc2nc(-c3ccc(OCc4ccccc4C)cc3)cc(C(F)(F)F)n2n1 | inactive: -1.76%
47 | Cc1cc(C)cc(-n2ccnc2SCC(=O)Nc2cccc3ccccc23)c1 | inactive: -14.4%
48 | COc1ccccc1C1NC(=O)c2n[nH]c(-c3cccs3)c21 (stereo not drawn) | inactive: -5.98%
